# Laboratory results as given in publication PMC4336329 (PLoS ONE, 2015).
# The campaign covered roughly 310,000 compounds. About 14,000 (4.5%) showed an effect of 50% or more. Effects have a minus sign here. The list shows a part of the results.
# Target: human ether-à-go-go-related gene (hERG) potassium channel (human, UniProt Q12809)
# Assay: primary screen, population patch clamp on CHO cells stably expressing hERG
# 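Note: peak tail current of the secondary pulse compared with the same well before compound.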
# Sequence of human ether-à-go-go-related gene (hERG) potassium channel (Q12809 whole entry, looked up): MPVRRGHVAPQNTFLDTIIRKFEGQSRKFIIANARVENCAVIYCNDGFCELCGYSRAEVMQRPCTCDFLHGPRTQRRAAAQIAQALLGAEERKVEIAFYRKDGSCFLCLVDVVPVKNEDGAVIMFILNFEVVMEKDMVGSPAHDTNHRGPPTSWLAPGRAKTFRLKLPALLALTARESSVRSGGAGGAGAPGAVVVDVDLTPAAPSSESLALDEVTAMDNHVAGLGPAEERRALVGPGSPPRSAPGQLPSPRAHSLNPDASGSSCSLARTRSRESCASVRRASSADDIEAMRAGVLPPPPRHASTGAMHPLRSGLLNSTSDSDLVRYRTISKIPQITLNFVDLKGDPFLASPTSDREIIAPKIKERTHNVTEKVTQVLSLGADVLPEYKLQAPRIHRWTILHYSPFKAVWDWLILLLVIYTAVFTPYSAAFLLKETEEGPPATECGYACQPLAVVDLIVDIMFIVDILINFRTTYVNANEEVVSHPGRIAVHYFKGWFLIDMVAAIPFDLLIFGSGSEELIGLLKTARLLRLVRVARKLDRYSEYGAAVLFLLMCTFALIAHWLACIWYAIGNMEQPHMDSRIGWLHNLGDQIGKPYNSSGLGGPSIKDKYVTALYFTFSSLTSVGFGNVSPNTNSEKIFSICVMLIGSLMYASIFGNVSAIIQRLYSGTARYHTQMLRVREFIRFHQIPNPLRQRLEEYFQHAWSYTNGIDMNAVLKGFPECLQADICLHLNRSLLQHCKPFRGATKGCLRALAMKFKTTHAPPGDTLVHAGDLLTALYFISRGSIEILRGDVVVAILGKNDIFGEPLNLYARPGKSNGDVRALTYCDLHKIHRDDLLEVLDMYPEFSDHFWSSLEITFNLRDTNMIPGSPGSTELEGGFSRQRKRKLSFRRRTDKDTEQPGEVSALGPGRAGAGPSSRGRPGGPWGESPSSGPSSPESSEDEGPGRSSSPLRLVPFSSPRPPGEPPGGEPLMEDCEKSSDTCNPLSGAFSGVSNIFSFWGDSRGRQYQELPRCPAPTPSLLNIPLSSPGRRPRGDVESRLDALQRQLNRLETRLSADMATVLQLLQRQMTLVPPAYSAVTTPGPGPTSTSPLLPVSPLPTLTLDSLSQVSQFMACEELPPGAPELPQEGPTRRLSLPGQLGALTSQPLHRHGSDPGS
row,Structure (SMILES),"hERG current change (%, negative = inhibition) at 10uM [%]"
1,O=C1NC2(CCCCCC2)C(=O)N1Cc1ccccc1Br,16.1
2,COCCSc1ccccc1C(=O)Nc1cc([N+](=O)[O-])ccc1OC,-28.8
3,CC1Cc2ccccc2N1CC(=O)Nc1ccc2c(c1)OCCCO2 (stereo not drawn),-16.1
4,O=C(NNC(=O)c1cc(-c2ccco2)nc2ccccc12)c1ccccc1,-3.05
5,CCOc1ccc(NC(=O)C2CCN(C(=O)N3CCOc4ccccc43)CC2)cc1,-14.5
6,Cc1ccc2c(c1)-c1c(ssc1=S)C(C)(C)N2C(=O)c1ccco1,14.2
7,Cc1nn(Cc2ccc(Cl)cc2)c(Cl)c1/C=N/NC(=O)c1cccnc1,-45.2
8,COC(=O)c1ccc(C(=O)NC2CCCc3c2cnn3-c2cc(F)cc(F)c2)nc1 (stereo not drawn),-22.9
9,COc1ccc(NC(=O)N2CCN(C(=O)c3ccco3)CC2)c(OC)c1,-12
10,Cn1ccnc1C(O)c1cc(C(C)(C)C)c(O)c(C(C)(C)C)c1 (stereo not drawn),-37.3
11,CC(c1nnc(SCn2nnc3ccccc3c2=O)n1-c1ccc(Cl)cc1)N(C)C (stereo not drawn),-10
12,CC(=O)Nc1cc(C(F)(F)F)ccc1N1CCOCC1,-24
13,O=C(C1COc2ccccc2O1)N1CCN(c2nc3ccccc3s2)CC1 (stereo not drawn),-27.9
14,Cc1c(C(=O)N2CCCCCC2)c(S(=O)(=O)Nc2ccccc2F)c(C)n1C,-6.6
15,Cc1ccccc1C(=O)c1cn[nH]c1-c1ccccc1O,8.84
16,CCCN1C2CCCC1CC(NC(=S)Nc1cc(C)ccc1C)C2 (stereo not drawn),11.6
17,Cc1nc(Nc2ccc(Br)cc2Br)c([N+](=O)[O-])c(=O)[nH]1,-2.87
18,Cc1ccc(CC(=O)Nc2ccc(OC(F)F)c(Cl)c2)cc1C,-5.51
19,Cc1cc(C)cc(C(=O)NCCn2cc(SCC(=O)N3CCOCC3)c3ccccc32)c1,-9.88
20,CCOc1c(OC(C)=O)ccc(/C=C/c2ccc3cccc(OC(C)=O)c3n2)c1[N+](=O)[O-],-4.23
21,CCOCCCN(C)C1CCN(S(=O)(=O)c2csc(C(N)=O)c2)CC1,6.89
22,O=C(CCC(=O)Nc1ccccc1)NNC(=O)COc1ccccc1,10.2
23,COC(=O)c1ccccc1NC(=O)c1ccc(NC(=O)C2CCCO2)cc1 (stereo not drawn),-16.1

row,Structure (SMILES),"hERG current change (%, negative = inhibition) at 10uM [%]"
1,Cc1cccc(N=Nc2cnc(N)s2)c1,6.76
2,CCCc1ccc(-c2cc(C(=O)NC3=NCCS3)c3ccccc3n2)cc1,-2.06
3,CC(=O)Nc1ccc(N2C(=O)CSC2c2ccccc2)cc1 (stereo not drawn),9.14
4,COc1cccc(NC(=O)C2CCCN2C(=O)Nc2ccccc2F)c1 (stereo not drawn),-12.2
5,CC(C)(C)n1nc2c(c1NC(=O)COc1ccccc1F)CS(=O)(=O)C2,-1.29
6,Cc1[nH]n(-c2ccccc2)c(=O)c1N=Nc1ccc(C(N)=O)cc1,19.5
7,Cc1coc2cc3oc(=O)c4c(c3cc12)CCC4,15.5
8,CC(C)C[C@@H](CO)N1CCN(Cc2cccnc2)CCC1=O,3.69
9,CCc1c(C(=O)NN2C(=O)C3CCCCC3C2=O)csc1C (stereo not drawn),6
10,COc1ccc(OC(C)C(=O)Nc2ccccc2F)cc1 (stereo not drawn),13.1
11,O=C(CCN1C(=O)C2C3C=CC(C3)C2C1=O)NC1CCCc2ccccc21 (stereo not drawn),2.8
12,COc1cc2c(c(O)c1OC)C(=O)C(OC)CCC2 (stereo not drawn),-3.32
13,CC(=O)c1c(C)[nH]c(C(=O)COC(=O)COc2ccccc2F)c1C,-3.3
14,Cc1nn(C2CCS(=O)(=O)C2)c(Cl)c1/C=C/C(=O)OCC(=O)N(C)C (stereo not drawn),11.3
15,Cc1ccc(S(=O)(=O)N2CCC(=O)N(C(COCc3ccccc3)Cc3ccccc3)CC2)cc1 (stereo not drawn),14.6
16,COc1ccccc1N1CCN(C(=O)CN(Cc2ccc(Cl)cc2)S(C)(=O)=O)CC1,-4.32
17,Cl.O=C(CNCC(=O)Nc1ccc(F)c(F)c1F)Nc1ccc(F)c(F)c1F,-0.133
18,COc1ccc(-c2[nH]ncc2CN2CCC(OCc3cccnc3)CC2)c(F)c1,-37.1
19,CCc1ccccc1-n1nnnc1-c1cnccc1C(F)(F)F,-0.285
20,O=C(Nc1ccccc1)Nc1nnc(Cc2ccc(F)cc2)s1,20.1
21,CCc1ccc(OC)c(-c2csc(N)n2)c1,0.446
22,O=C1C=C(NC2=CC3OC(c4ccccc4)OCC3OC2=O)CCC1 (stereo not drawn),9.91
